The values below come from the supplement of paper PMC10338343.

± gives the standard deviation. Over roughly 5,500 sequences, “pre-steady-state target cleavage rate” has its median near 0.1; the highest 2% begin near 0.64. The entries are a selection whose mix differs from that of the whole data set.

The experiment relates to MIWI (PIWIL1) piRISC loaded with piRNA #2 (30 nt). Briefly: pre-steady-state target cleavage rate (min^-1); MIWI and MILI are mouse PIWI proteins and EfPiwi is from a freshwater sponge; tags in brackets are library labels; higher = faster piRNA-guided slicing of the target. The conditions noted are these: guide: piRNA #2 5'p-UUAGGUAACCCAGUAGAUCCAGAGGAAUUC; auxiliary factor: 500 nM mouse GTSF1. Put shortly: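 A transcribed, DNA-blocked target RNA library (0.1 nM) and 1 nM active affinity-purified piRISC bearing one synthetic guide were incubated in HEPES–potassium acetate buffer at 33 °C for 0–8 or 0–960 min, either with or without 500 nM GTSF1 partner protein. Uncleaved targets were sequenced, normalised to depth and to weakly complementary targets, and pooled over three trials, with k3 capped at 0.0001 min^-1. The pre-steady-state cleavage rate was derived with a burst-and-steady-state fit.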
Turning to CUUAAGGUCUGGAUCUACAGGGUUUCCUAA, the “pre-steady-state target cleavage rate” value is 0.1 ± 0.014.
To GAAAUCCUCUGGAUCAACUGGGUUACCUAA belongs 0.234 ± 0.05.
As to CUUAAGGAGAGAUCUACUGGGUUACCUAA, the “pre-steady-state target cleavage rate” value was 0.00757 ± 0.0027.
With CUAUUCCUCUGCAUCUACUGGGUUACCUUA, the “pre-steady-state target cleavage rate” value was 0.325 ± 0.05.
The same measure for CUUAACCUCAGGAUCUACUGCGUUACCUAA: 0.321 ± 0.037; for CUUAUCCUCUGGAUCUACUGGGUUAUCUAA: 0.569 ± 0.082.
To CUUAAGGAGACCUUCCUACUGGGUUACCUAA belongs 0.00294 ± 0.0029; to CUUAAGCUCUGGAUCUAGUGGCUUACCUAA, 0.00679 ± 0.004; to CUUAAGGUCUGGAUGUACUGGGUUUCCUAA, 0.0738 ± 0.026.
Consider CUUAUCCUCUGGAUCUACUGCGUUUCCUAA, for which the “pre-steady-state target cleavage rate” value was determined as 0.124 ± 0.03.
The same measure for CUUAAGGACUGGAUCUACUGGGUAACGUAA: 0.0406 ± 0.025.
Take CUUAAGCUCUGGAUCUUCUGGCUUACCUAA: the “pre-steady-state target cleavage rate” value amounted to 0.0206 ± 0.0097.
Regarding CUAUUCCUCUGGAUCUACUCGGUUACCUUA, the “pre-steady-state target cleavage rate” value came out at 0.0832 ± 0.022.
To CUAUUCCUCUGGAUCUACUGGGUUACGAAA belongs 0.204 ± 0.043.
The same measure for CUUAUCCUCAGGAACUACUGGGUUACCUAA: 0.486 ± 0.032; for CUAUUCCUCUGGAUCUACUGGGUUACCCUAA: 0.185 ± 0.058; for CUUAAGGUCUCGAUCUACUGGGAUACCUAA: 0.117 ± 0.022.
To CUUUUGCUCUGGAUCUACUGGGAUACCUAA belongs 0.118 ± 0.014.
For CAAUUCCUCUGGAUCUACUGGGUAUACCUAA, the “pre-steady-state target cleavage rate” value is 0.602 ± 0.068.
The same measure for CUAUUCGCUCUGGAUCUACUGGGUUACCUAA: 0.134 ± 0.026; for “CAAUUCCUCUGGAUCUACUGGGUUACCUAC [g2:g29:cont:t1C]”: 0.415 ± 0.051.
The same measure for CUUAAGCUCUGGAAUCUACUGGGUUACCUAA: 0.115 ± 0.013; for CUUAUCCUCUGGAUGUAGUGGGUUACCUAA: 0.0926 ± 0.022.
Turning to CUUAUCCACUGGAUCUAGUGGGUUACCUAA, the “pre-steady-state target cleavage rate” value worked out at 0.289 ± 0.025.
As for CUUAAGGUCUGGAUCUACUUGGUUACCUAA, the “pre-steady-state target cleavage rate” value turned out to be 0.00523 ± 0.0043.
The same measure for CUUAAGGACUGGAUCUACAGGGUUAGCUAA: 0.036 ± 0.017; for CUAUUACCUCUGGAUCUACUGGGUUACCUAA: 0.227 ± 0.041.
The same measure for CAAUUCCUCGUGGAUCUACUGGGUUACCUAA: 0.189 ± 0.037; for CUAUACCUGUGGAUCUACUGGGUUACCUAA: 0.381 ± 0.036.
For the sequence CUUAACCUCUGCAUCUACUCGGUUACCUAA, the “pre-steady-state target cleavage rate” value amounted to 0.0836 ± 0.01.
To CUUUUCCGCUGGAUCUACUGGGUUACCUAA belongs 0.517 ± 0.046.
The same measure for CUUAAGCUCUGGAUCUAGUGGGUUACGUAA: 0.0687 ± 0.0089; for GAAUUCCUCUGCAUCUUCUGGGUUACCUAA: 0.389 ± 0.036.
The same measure for CUUUACCUCUGGAUCUACUGGGUUAGCUAA: 0.313 ± 0.035; for CUUAAGGACUGGAUCUACAGGCUUACCUAA: 0.0145 ± 0.01; for GUAUUCCUCUGGAUCAACUGGGUUACCUAA: 0.0482 ± 0.025.
For the sequence CUUAAGGUGUGGAUCUACUGGGUUACCUUA, the “pre-steady-state target cleavage rate” value amounted to 0.0732 ± 0.015.
To CUUAACCUCUGGAUCUACUGGGUUAGCAAA belongs 0.0935 ± 0.014; to CUUAAGGACUGGAUCUACUGGGUUACCGAA, 0.0317 ± 0.024; to CUUAAGGACUGGAUCUACAGGGAUACCUAA, 0.0148 ± 0.0085.
As to CUAAUCCUCUGGAUCUAGUGGGUUACCUAA, the “pre-steady-state target cleavage rate” value worked out at 0.214 ± 0.025.
For CUUAUGCUCUGGUUCUACUGGGUUACCUAA, the “pre-steady-state target cleavage rate” value was found to be 0.325 ± 0.031.
Consider “GAAUUCCUCUGGAUCUACUGGGUUAGGAUA [g6:g30:cont:t1A]”, for which the “pre-steady-state target cleavage rate” value was found to be 0.126 ± 0.04.
To CUUAAGGUCUGGAUCUACUGGCAUACCUAA belongs 0.00954 ± 0.005; to CUAUUCCUGUCGAUCUACUGGGUUACCUAA, 0.551 ± 0.043.
Take CUUAUCCUCUGGAUCUACUGGGUUACCUCAA: the “pre-steady-state target cleavage rate” value stood at 0.337 ± 0.05.
As to GAAUUCCUCUGGAUCUUCUGGGUUACCAAA, the “pre-steady-state target cleavage rate” value was 0.294 ± 0.047.
CUUAAGGUCUCCUUCUACUGGGUUACCUAA: the “pre-steady-state target cleavage rate” value worked out at 0.00435 ± 0.0033.
With CUUAAGGAGUGGAUCUACUGGGUUACCAAA, the “pre-steady-state target cleavage rate” value amounted to 0.0307 ± 0.014.
To CAAUUCGAGUGGAUCUACUGGGUUACCUAA belongs 0.407 ± 0.045; to CUUAAGCUCUGGCUCUACUGGGUUACCUAA, 0.248 ± 0.027; to CAAUUCCUCUGGAUCUACUGGGGUUACCUAA, 0.0623 ± 0.016.
To CUUAAGGAGAGGAUCUACUGGGUUACAUAA belongs 0.096 ± 0.02; to CAAUUCCUCUGGAUCUACUGGGUUAGCUAA, 0.338 ± 0.071; to GUAUUCGUCUGGAUCUACUGGGUUACCUAA, 0.231 ± 0.058.
On to CUUAUCCUCUGGAUGAACUGGGUUACCUAA, for which the “pre-steady-state target cleavage rate” value was 0.234 ± 0.05.
Regarding GAAUUCCUCUGGAUCUUCUGCGUUACCUAA, the “pre-steady-state target cleavage rate” value was determined as 0.272 ± 0.038.
To GAAUUCCUCUGGAAUCUACUGGGUUACCUAA belongs 0.341 ± 0.056.
To GAAUUCCUUUGGAUCUACUGGGUUACCUAA belongs 0.404 ± 0.042.
To CUAUUCCACUGGAUCUACUGGGUUACGUAA belongs 0.481 ± 0.066.
CUAUUCCUCAGGAUCUACUGCGUUACCUAA: the “pre-steady-state target cleavage rate” value was found to be 0.561 ± 0.069.
In the case of CUUUUCCUCUGGAACUACUGGGUUACGUAA, the “pre-steady-state target cleavage rate” value was found to be 0.48 ± 0.036.
With CUUAAGGACUGGAUCUACAGGGUUACCUAA, the “pre-steady-state target cleavage rate” value was determined as 0.117 ± 0.028.
In the case of CUUAAGGUAUGGAUCUACUGGGUUACCUAA, the “pre-steady-state target cleavage rate” value stood at 0.323 ± 0.035.
With CUUAUCCUCUGGAUCUCCUGGGUUACCUAA, the “pre-steady-state target cleavage rate” value is 0.263 ± 0.048.
To CUUAAGGACUGGUUCUAGUGGGUUACCUAA belongs 0.00702 ± 0.0069.
For CUUAAGGUCGGAUCUACUGGGUUACCUAA, the “pre-steady-state target cleavage rate” value is 0.043 ± 0.025.
GUAUUCCUCUGGAUCUACUGGGUAACCUAA: the “pre-steady-state target cleavage rate” value turned out to be 0.053 ± 0.024.
For GUAUUCCUCUGGAUCUACUGGGUUUCCUAA, the “pre-steady-state target cleavage rate” value stood at 0.161 ± 0.041.
The same measure for CUUAAGCUCUGGAUCUACUGGGUUACCUUA: 0.0905 ± 0.018; for CUUAAGGUCUGGACUACUGGGUUACCUAA: 0.0214 ± 0.012.
As to CUUAACCUCUGGUUCUACUCGGUUACCUAA, the “pre-steady-state target cleavage rate” value came to 0.173 ± 0.018.
